Data on two molecules can be found in patent publication US9783610B2.

The target of assay [1] is human TEM1 (endosialin, CD248) on cells (human) (UniProt Q9HCU0). The experiment in a line: live cell-based ELISA, binding to MS1-TEM1 minus binding to MS1 cells, HA-HRP detection. For orientation: An ELISA detects its analyte on a solid surface through an enzyme-linked reagent.
Assay [2] has the same target. In words: live cell-based ELISA on MS1-TEM1 cells (as restated in the radiolabeling section).
The target is the same in assay [3]. In words: live cell-based ELISA on MS1-TEM1 cells; reference scFv78.
Assay [4] has the same target. The experiment in a line: binding of 125I-labeled scFv78-Fc to MS1-TEM1 cells.

B1: Anti-TEM1 scFv78-Fc (Fc fusion)
chain: VQPVLTQPPSLSASPGASASLTCTLRSDINVGSYRISWYQQKPGSPPQYLLSYISDSDKQKGSGVPSRFSGSKDASANAGILLISGLQSEDEADYYCMIWHNSAGVFGGGTKLTVLGGGSSRSSSSGGGGSGGGGQVQLQESGGTLVQPGGSLRLSCEASGFTFSNYAMGWVRQTPGKGLEWLSAIRKSGTTTYYADSVKGRFIISRDNSKNTLYLQMNRLRVGDTATYYCATHPIAGYWGQGTLVTVSSASTKGPSVGGGSLIK[… human IgG1 Fc …]
What is called Kd is the free concentration of one partner at which half of the binding sites on the other are occupied at equilibrium, for simple one-to-one binding. On to B1, for which the Kd in assay [1] was 140 pM; in assay [2], 150 pM. In assay [3], this molecule came in with a fold lower KD than scFv78 of 15 fold.

B2: 125I-labeled scFv78-Fc (Fc fusion)
chain: VQPVLTQPPSLSASPGASASLTCTLRSDINVGSYRISWYQQKPGSPPQYLLSYISDSDKQKGSGVPSRFSGSKDASANAGILLISGLQSEDEADYYCMIWHNSAGVFGGGTKLTVLGGGSSRSSSSGGGGSGGGGQVQLQESGGTLVQPGGSLRLSCEASGFTFSNYAMGWVRQTPGKGLEWLSAIRKSGTTTYYADSVKGRFIISRDNSKNTLYLQMNRLRVGDTATYYCATHPIAGYWGQGTLVTVSSASTKGPSVGGGSLIK[… human IgG1 Fc …]
modifications: 125I label (site not stated)
On to B2, for which, in assay [4], the Kd was 1000 pM. This lies in the single-digit nanomolar range.
